These results are taken from the supplement of paper PMC3334620.

The full ranking holds about 33,000 sequences; the median of “E-score (-0.5 to 0.5)” is about -0.032, and the highest 2% start at about 0.36. Some of the results follow.

This test concerns the target T1, Sko1 (UniProt Q02100).
T1 sequence: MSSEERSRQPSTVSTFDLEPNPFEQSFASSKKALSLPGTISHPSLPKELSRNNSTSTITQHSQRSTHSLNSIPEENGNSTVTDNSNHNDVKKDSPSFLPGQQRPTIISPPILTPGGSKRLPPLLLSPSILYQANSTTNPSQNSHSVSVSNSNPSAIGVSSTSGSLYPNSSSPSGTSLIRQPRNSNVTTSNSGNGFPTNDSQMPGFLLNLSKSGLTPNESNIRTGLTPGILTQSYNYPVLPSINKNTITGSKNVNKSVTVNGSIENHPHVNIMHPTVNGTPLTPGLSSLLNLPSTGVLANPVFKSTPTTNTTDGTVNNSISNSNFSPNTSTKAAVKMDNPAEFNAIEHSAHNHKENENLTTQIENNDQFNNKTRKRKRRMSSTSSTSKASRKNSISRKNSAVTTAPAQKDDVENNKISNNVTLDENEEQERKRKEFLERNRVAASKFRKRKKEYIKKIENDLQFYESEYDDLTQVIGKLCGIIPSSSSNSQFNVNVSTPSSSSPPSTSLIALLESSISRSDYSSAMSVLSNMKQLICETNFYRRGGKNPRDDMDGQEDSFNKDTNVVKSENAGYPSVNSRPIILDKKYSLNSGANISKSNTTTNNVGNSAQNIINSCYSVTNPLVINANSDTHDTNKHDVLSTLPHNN
Put plainly: PBM E-score (8-mer binding enrichment) (E-score (-0.5 to 0.5)); higher = stronger / more preferred TF binding; most listed sequences are background and not binding sites. As to conditions: protein concentration: 200 nM; construct: GST-full length. The method, then:
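Universal 'all 10-mer' protein binding microarrays (Agilent AMADID 015681) probed with GST-tagged S. cerevisiae TFs (full-length or DBD) made by in vitro transcription/translation (PURExpress), about 100-200 nM. Bound TF was detected with fluorescent anti-GST. Each ungapped 8-mer (which stands for itself and its reverse complement) is scored by the PBM enrichment score (E-score), a modified Wilcoxon-Mann-Whitney statistic from -0.5 to +0.5, computed with the Universal PBM Analysis Suite. Scale: above 0.35 generally sequence-specific binding.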
AGGGTCAC: the “PBM E-score” value was -0.235.

For CCAATCCG, the “PBM E-score” value was -0.0702.

On to CAAGCTTC, for which the “PBM E-score” value was -0.00273.

ACGGAACA: the “PBM E-score” value was -0.0669.

Regarding ACCGGCTG, the “PBM E-score” value is -0.337.

Consider CTTACTGC, for which the “PBM E-score” value is -0.111.

Take GTTATCAA: the “PBM E-score” value is 0.19.

Consider ACCGCGAA, for which the “PBM E-score” value is -0.0288.

On to GCGACGTA, for which the “PBM E-score” value was 0.413.

Turning to CATACCCC, the “PBM E-score” value was -0.248.

With CCAATAAC, the “PBM E-score” value worked out at 0.159.

As for GGTCATAC, the “PBM E-score” value amounted to 0.021.

GCCCCTCA: the “PBM E-score” value was -0.314.

On to AACGTGAA, for which the “PBM E-score” value worked out at 0.14.

For the sequence ATCAGCGA, the “PBM E-score” value is -0.0282.

CTTATGGA: the “PBM E-score” value is -0.255.

For ATCGATCG, the “PBM E-score” value came out at 0.104.

Regarding ATGATGGA, the “PBM E-score” value was found to be 0.115.

For the sequence AATAGCTC, the “PBM E-score” value was -0.0596.

With CGACACGC, the “PBM E-score” value is 0.109.

With CAGGCTGG, the “PBM E-score” value is -0.236.

For CTAATCCC, the “PBM E-score” value is -0.047.

Regarding AAGCACAC, the “PBM E-score” value was -0.0626.

As for CTATCGGA, the “PBM E-score” value is -0.139.

As to ATCCCGGC, the “PBM E-score” value was -0.229.

AAAGCGCG: the “PBM E-score” value stood at 0.0853.

In the case of AAGTCTGC, the “PBM E-score” value is -0.245.

Consider CTAGACCC, for which the “PBM E-score” value is -0.075.

Take TGTTTCAA: the “PBM E-score” value was 0.2.

Take ATTTCCGA: the “PBM E-score” value was 0.0263.

Consider GCAATATA, for which the “PBM E-score” value was 0.102.

AACAAAGA: the “PBM E-score” value was determined as 0.0544.

On to AAACAGCA, for which the “PBM E-score” value came out at 0.0279.

Turning to CTGTGCGA, the “PBM E-score” value was -0.149.

Take CTGGAGTA: the “PBM E-score” value is 0.101.

In the case of CGTGAGTC, the “PBM E-score” value turned out to be 0.0234.

In the case of CAACACGC, the “PBM E-score” value was found to be 0.0514.

Regarding GCTACGGA, the “PBM E-score” value was -0.0597.

Take CGCCCATC: the “PBM E-score” value is -0.193.

Regarding AGACTTCG, the “PBM E-score” value came out at 0.0209.

Regarding ACCCCCAA, the “PBM E-score” value was -0.174.

Turning to ACGCCTAA, the “PBM E-score” value came out at 0.0525.

For AAACCTCC, the “PBM E-score” value was -0.198.

On to AGTTCTGC, for which the “PBM E-score” value is -0.00688.

In the case of CGCGTACG, the “PBM E-score” value was 0.401.

For ACTAATAA, the “PBM E-score” value was determined as 0.297.

For ACTCCGAT, the “PBM E-score” value was -0.27.

With ATGGGCTC, the “PBM E-score” value is -0.183.

As to CGATCTAG, the “PBM E-score” value was -0.115.

In the case of AGACCTTG, the “PBM E-score” value is -0.208.

For the sequence CTGCGCCA, the “PBM E-score” value was -0.0267.

As to AACTTCGC, the “PBM E-score” value was determined as 0.0815.

With AGGTTGAG, the “PBM E-score” value was -0.143.

For the sequence TGTCCGAA, the “PBM E-score” value is -0.0382.

Turning to ATAATGAC, the “PBM E-score” value is 0.378.

For the sequence CTGTTTTC, the “PBM E-score” value is 0.0477.

AACCTCTA: the “PBM E-score” value was -0.112.

Regarding ACAGGAGC, the “PBM E-score” value was -0.0772.

For the sequence GTGCGGTA, the “PBM E-score” value was found to be 0.00857.

Take CCAGCAGG: the “PBM E-score” value was -0.217.

For the sequence AGCTCAAT, the “PBM E-score” value was 0.016.

In the case of AGTAGAGC, the “PBM E-score” value was -0.192.

Regarding CTTACTCA, the “PBM E-score” value is -0.0819.

On to AACTGGAG, for which the “PBM E-score” value is -0.258.

In the case of ATAGAAAC, the “PBM E-score” value came to 0.168.

For the sequence AACGTATC, the “PBM E-score” value is 0.353.

For the sequence CCGGTACC, the “PBM E-score” value is -0.0689.

For the sequence AGGTCTGC, the “PBM E-score” value was -0.317.

As to GTAACGGA, the “PBM E-score” value turned out to be 0.191.

As for AAGAGCTT, the “PBM E-score” value was -0.156.

Regarding GTAAGGAC, the “PBM E-score” value was -0.0853.

Turning to ACAGGACG, the “PBM E-score” value amounted to 0.0775.

Take GTTTAAAC: the “PBM E-score” value amounted to 0.28.

With AATACTAC, the “PBM E-score” value came out at 0.306.

ACGCTATC: the “PBM E-score” value came out at 0.238.

Regarding AGTAGACG, the “PBM E-score” value worked out at 0.302.

Turning to GAAGTGTA, the “PBM E-score” value was -0.125.

Take CCTCCGTC: the “PBM E-score” value is -0.221.

As to GCGTGCCA, the “PBM E-score” value was -0.151.

ATACTATC: the “PBM E-score” value stood at 0.0481.

As to GATTCCAA, the “PBM E-score” value is -0.05.

On to CCCAGGAC, for which the “PBM E-score” value was -0.332.

Regarding CGTGTAAG, the “PBM E-score” value stood at 0.218.

For the sequence TATGACCA, the “PBM E-score” value worked out at 0.178.

Consider GCTCGTCA, for which the “PBM E-score” value is 0.351.

Turning to GGCTAACC, the “PBM E-score” value is -0.268.
